Measured values from the antibiotic and cytotoxicity screens of Wong et al. (2023).
This is one part of the list.

How the values were obtained:
HSkMC = human skeletal muscle cells; experiment: cytotoxicity call (relative viability < 0.9); details: 10 µM
HepG2 = experiment: cytotoxicity call (relative viability < 0.9); details: 10 µM
S. aureus RN4220 = experiment: growth inhibition call (relative growth <= 0.2); details: 50 µM

C[C@@H]1CN([C@@H](C)CO)C(=O)c2cc(NC(=O)Nc3ccc(F)cc3)ccc2O[C@@H](C)CCCCO[C@@H]1CN(C)S(=O)(=O)c1ccc(Cl)cc1
inactive: cytotoxicity call (HSkMC) | cytotoxicity call (HepG2) | growth inhibition call (S. aureus RN4220)

CC(C(=O)O)c1ccc(CC2CCCC2=O)cc1 (centres undefined)
inactive: cytotoxicity call (HSkMC) | cytotoxicity call (HepG2) | growth inhibition call (S. aureus RN4220)

C[C@@H]1CCCCO[C@H](CN(C)Cc2ccc(C(=O)O)cc2)[C@@H](C)CN([C@H](C)CO)C(=O)c2cc(NC(=O)Nc3cccc4ccccc34)ccc2O1
inactive: cytotoxicity call (HSkMC) | cytotoxicity call (HepG2) | growth inhibition call (S. aureus RN4220)
